Data: PubChem BioAssay AID504832 (National Center for Advancing Translational Sciences (NCATS), 2011)
Screen size: about 310,000 compounds; about 18,000 (5.8%) were called active. Inconclusive results, whose numbers are uncertain, are shown with a selection of clear calls. Calls come from the whole dose curve; as a rule, active = well fitted inhibition curve with a large enough effect; inconclusive = small, poorly fitted or top-dose-only effect, or another doubt; inactive = no such curve, though single readings can be large or run the other way. Potencies of inconclusive entries are left out as doubtful fits.

Assay: Primary qHTS for delayed death inhibitors of the malarial parasite plastid, 48 hour incubation
Conditions: P. falciparum luciferase growth in erythrocytes; series mostly up to 28.7 µM; activity change, negative = inhibition: at the top concentration
Outline: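 Luminescence readout; reporter = integrated firefly luciferase in P. falciparum. RBC culture at 2% hematocrit, 0.1% parasitemia final, 37 C/5% CO2; decreased signal taken as growth inhibition.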
% is set by controls: 0 for no effect and ±100 for the full control effect; potency is the fitted concentration of half-maximal effect; tags give direction and shape of the fitted curve.

Row | Structure (SMILES) | activity change, negative = inhibition | Potency
1 | CC1(C)CC2CC(C)(CN2C(=O)c2ccc([N+](=O)[O-])cc2[N+](=O)[O-])C1 (centres undefined) | inactive: -17.8% | 
2 | COc1ccc(C(=O)NCCNc2nc3cc(C)c(C)cc3cc2C)cc1 |  | inconclusive [inhibitor, single point]
3 | NNC(=O)CCCNc1ncc(C(F)(F)F)cc1Cl | inactive: -17.4% | 
4 | COc1ccc(-c2cc(C(F)(F)F)nc(N3CCN(C)CC3)n2)cc1OC |  | inconclusive [inhibitor, full curve, poor fit]
5 | CSc1cccc(CN2CCN(CCC(C)C)C(CCO)C2)c1 (centres undefined) | inactive: -25.7% | 
6 | O=C(CNC(=O)c1ccc(Br)o1)Nc1ncccc1O | inactive: 13.2% | 
7 | Clc1ccc(-c2nn3c(-c4ccccn4)nnc3s2)c(Cl)c1 |  | inconclusive [inhibitor, full curve, poor fit]
8 | COCCNC(=O)C(c1cccs1)N(CCc1ccccc1)C(=O)Cn1nnc2ccccc21 (centres undefined) |  | inconclusive [inhibitor, single point]
9 | Cc1ccc(-c2cc(C(=O)Nc3ccc(S(=O)(=O)Nc4nc(C)cc(C)n4)cc3)c3ccccc3n2)cc1 |  | inconclusive [inhibitor, partial curve, poor fit]
10 | CCCCCn1c(=O)c(C(=O)Nc2cccc(C)c2)c(O)c2ccccc21 |  | inconclusive [inhibitor, single point]
11 | CC(OC(=O)C1CCN(c2ccc(C(F)(F)F)cn2)CC1)C(=O)Nc1cccc([N+](=O)[O-])c1 (centres undefined) |  | active: 11.7 µM
12 | O=C1N2c3ccccc3CCc3cccc(c32)C1(O)C(F)(F)F (centres undefined) | inactive: 4.97% | 
13 | CC(C)(C)NS(=O)(=O)c1ccc(NC(=O)c2cc(-c3ccccc3)nc3ccccc23)cc1 |  | inconclusive [inhibitor, full curve, poor fit]
14 | COC(=O)C1=C(c2ccc(-c3ccccc3)c(F)c2)C[C@@H]2CC[C@H]1N2C(=O)NCCOc1ccccc1Cl |  | active: 10.4 µM
15 | CSc1ccc(Cl)c(C(=O)Nc2nccs2)c1 |  | inconclusive [inhibitor, single point]
16 | CC(=O)N1N=C(c2ccccc2)CC1c1cccs1 (centres undefined) | inactive: 13.2% | 
17 | COC(=O)CN1C(=O)C(O)(CC(=O)c2ccc(Cl)cc2)c2ccccc21 (centres undefined) | inactive: -10.8% | 
18 | N#Cc1c2c(c(NCCOCCO)n3c1nc1ccccc13)CCCC2 |  | inconclusive [inhibitor, single point]
19 | COC(=O)c1ccc(C(=O)Nc2ccc3nc(-c4cccnc4)[nH]c3c2)cc1 |  | inconclusive [inhibitor, partial curve]
20 | [S-]C(=Nc1ccc(Cl)cc1)N[n+]1ccccc1 | inactive: 14.6% | 
21 | CCOC(=O)C1=C(N)OC2=C(C(=O)CCC2)C12C(=O)N1c3c(ccc(C)c32)C(C)=CC1(C)C (centres undefined) |  | inconclusive [inhibitor, single point]
22 | CCCOP(=O)(c1ccc(N(C)C)cc1)C(Nc1ccccc1)c1ccc(C)cc1 (centres undefined) |  | inconclusive [inhibitor, partial curve, poor fit]
23 | COc1ccccc1NC(=S)N(CCCN1CCOCC1)Cc1cccs1 |  | inconclusive [inhibitor, partial curve]

Row | Structure (SMILES) | activity change, negative = inhibition | Potency
24 | O=C1C(NS(=O)(=O)c2ccc(Br)cc2)=C(N2CCCCC2)C(=O)c2ccccc21 |  | active: 11.7 µM
25 | Cc1cccc(NC(=O)Nc2ccc(S(N)(=O)=O)cc2)c1 | inactive: 8.78% | 
26 | CCCNCc1cc(OC)c(OCC(=O)Nc2ccccc2)cc1Br |  | inconclusive [inhibitor, single point]
27 | CCn1c(SCc2nc(-c3cccs3)no2)nnc1-c1c[nH]c2ccccc12 |  | inconclusive [inhibitor, single point]
28 | CCC(C(=O)OCn1nnc2ccccc2c1=O)c1ccccc1 (centres undefined) | inactive: 4.73% | 
29 | CC(=O)c1cccc(CN2CCCC(C(=O)Nc3cccc(-n4cccn4)c3)C2)c1 (centres undefined) |  | inconclusive [inhibitor, partial curve, poor fit]
30 | CCOC(=O)C1(CCCc2ccccc2)CCN(C(=O)Cn2nc(C)nc2C)CC1 | inactive: -7.46% | 
31 | CCOc1ccc2nc(Nc3nc(CSc4nnnn4-c4ccccc4)cc(=O)[nH]3)nc(C)c2c1 |  | inconclusive [inhibitor, single point]
32 | CC(C)OC(=O)CSc1nnc(CNc2cccc(Cl)c2)n1C |  | inconclusive [inhibitor, single point]
33 | Cc1ccc(C)c(-c2nnc(NC(=O)CS(=O)(=O)c3ccccc3)o2)c1 |  | active: 13.1 µM
34 | COc1ccc(S(=O)(=O)N2CCC(O)(c3ccc4c(c3)OCO4)CC2)cc1 |  | inconclusive [inhibitor, full curve, poor fit]
35 | O=C(Cc1ccc(-c2ccccc2)cc1)OCC(=O)N1CCCC1=O |  | inconclusive [inhibitor, full curve, poor fit]
36 | CCn1c(=O)cc(OCC(=O)N2CCc3ccccc32)c2ccccc21 | inactive: 37% | 
37 | COc1cc(/C=C(\C#N)C(=O)NC2CCCCC2C)ccc1OS(=O)(=O)c1ccc(C)cc1 (centres undefined) |  | inconclusive [inhibitor, single point]
38 | CCOc1ccccc1NC(=O)C1CCCN(S(=O)(=O)c2cccc3cccnc23)C1 (centres undefined) |  | inconclusive [inhibitor, partial curve, poor fit]
39 | Cc1ccc2[nH]c(C)c(CC(=O)O)c2c1 |  | inconclusive [inhibitor, single point]
40 | C=CCNC(=O)COc1cc(C)cc(C)c1C | inactive: 24.3% | 
41 | COc1ccccc1N(CC(=O)NCCSc1ccc(Cl)cc1)S(C)(=O)=O | inactive: -12.7% | 
42 | O=C(Cn1ccc(NC(=O)OCc2ccccc2)nc1=O)NCc1ccc2[nH]ccc2c1 | inactive: 1.35% | 
43 | CC(C)CN1C(=O)C(=O)N(CC(=O)N2c3ccccc3NC(=O)CC2C)C1=O (centres undefined) | inactive: -0.255% | 
44 | Cc1cc(C(=O)Nc2ccc(F)cc2)c2ccccc2n1 | inactive: -0.398% | 
45 | CC1(C)C2CC=C(/C=N/NC(=O)c3ccc(Cl)cc3)C1C2 (centres undefined) |  | inconclusive [inhibitor, single point]
46 | C#CCOC(=O)Nc1cnccc1C(F)(F)F | inactive: 36% | 

Row | Structure (SMILES) | activity change, negative = inhibition | Potency
47 | CCOC(=O)c1csc(Nc2nc3ccc(F)cc3s2)n1 |  | inconclusive [inhibitor, single point]
48 | N=C1C(c2ccccc2)=C(O)CN1c1cccc(S(=O)(=O)N2CCCCC2)c1 |  | inconclusive [inhibitor, partial curve]
49 | COc1ccc(/C=N/NC(=O)c2ccc(Br)cc2)cc1CN1CCOCC1 |  | inconclusive [inhibitor, partial curve, poor fit]
50 | COc1ccc(N2CCN(C(=O)c3cc4cc(Cl)ccc4[nH]3)CC2)cc1 |  | inconclusive [inhibitor, single point]
51 | CCn1c(=O)c(CCC(=O)N2CCOCC2)c(C)c2c(C)nn(-c3ccccc3)c21 |  | inconclusive [inhibitor, single point]
52 | O=S(=O)(N/N=C\C=C\c1ccccc1)c1ccc(Cl)cc1 | inactive: 3.78% | 
53 | Cc1cc(C(=O)N/N=C/c2ccc(OCc3ccccc3)cc2)c(C)o1 |  | inconclusive [inhibitor, partial curve, poor fit]
54 | COC(=O)c1ccc(Sc2ccccc2NS(=O)(=O)c2ccc(C)cc2)nc1 | inactive: 0% | 
55 | Cc1nn(C)c(C)c1CS(=O)(=O)c1ccccc1 | inactive: -3.57% | 
56 | Cc1ccc(N(CC2CO2)S(=O)(=O)c2ccccc2[N+](=O)[O-])cc1 (centres undefined) | inactive: 14.8% | 
57 | COc1cc(OC)cc(C(=O)N[C@H](C(=O)Nc2nc(-c3ccc(F)c(F)c3)cs2)C(C)C)c1 |  | active: 13.1 µM
58 | Cc1cccc(CCN(C(=O)Cc2cccs2)C(C(=O)NC2CCCCC2)c2cccnc2)c1 (centres undefined) |  | inconclusive [inhibitor, partial curve, poor fit]
59 | O=[N+]([O-])c1ccc(N/N=C/c2cn(-c3ccccc3)nc2-c2ccccc2)cc1 |  | active: 13.1 µM
60 | C[C@H](CCC(=O)O)[C@H]1CC[C@H]2[C@@H]3[C@H](O)C[C@@H]4C[C@H](O)CC[C@]4(C)[C@H]3C[C@H](O)[C@]12C |  | active: 9.28 µM
61 | O=C(Sc1nnc(-c2ccccc2)o1)N1c2ccccc2Sc2ccccc21 |  | inconclusive [inhibitor, partial curve]
62 | O=C(CN1CCN(S(=O)(=O)c2ccc(Br)cc2)CC1)c1ccc(O)c(O)c1 |  | inconclusive [inhibitor, partial curve]
63 | Cc1ccc(S(=O)(=O)N2CCc3ccccc3C2)cc1 |  | inconclusive [inhibitor, full curve, poor fit]
64 | Cc1ccc(N(CC(=O)Nc2ccc3c(c2)OCCO3)S(=O)(=O)c2c(C)n[nH]c2C)cc1 |  | inconclusive [inhibitor, full curve]
65 | COc1ccc(-n2c(N)c(C(=O)NCc3ccco3)sc2=S)cc1 |  | inconclusive [inhibitor, single point]
66 | CCN1CCN(c2ccc(S(=O)(=O)N3CCCCC3)cc2NC(=O)Cc2ccccc2)CC1 |  | inconclusive [inhibitor, partial curve]
67 | O=C(N/N=C/c1cccc2ccccc12)c1ccc(CN2CCOCC2)cc1 |  | inconclusive [inhibitor, single point]
68 | COC(=O)[C@@]12CCCN1[C@H](c1ccc(-c3cccc(Cl)c3)c(OC)c1)[C@H]1C(=O)N(C)C(=O)[C@H]12 |  | active: 2.33 µM
69 | O=C1NCCN1Cc1ccccc1F |  | inconclusive [inhibitor, partial curve]
